The test system of this experiment is MX-1 breast xenograft, nude mice, tumor weight T/C. Kind of experiment: NCI In Vivo Anticancer Drug Screen. Data for tumor model Human Mammary Carcinoma MX-1 Xenograft (intrarenal inoculation) in NU/NU Swiss (nude) mice. The conditions noted are these: endpoint: mean tumor weight change, higher = larger tumour. Put shortly:
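Mice carrying the implanted tumor receive either test agent or vehicle. Tumor size or survival is then recorded for both groups. Results are stated as the treated-to-control quotient.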

Where [1] appears, read: dose: 12.5 mg/kg/injection, schedule: Q01DX010 (sc), vehicle: saline.
[2] abbreviates: dose: 400.0 mg/kg/injection, schedule: Q01DX010 (sc), vehicle: distilled water + Tween-80.
Setting [3] is: dose: 0.5 mg/kg/injection, schedule: Q01DX010 (sc), vehicle: saline.

Results filed as inconclusive are left out. Certain results were filed several times, with different values. The other results are left out here. The source may hold further records. The values listed for one entry repeat one measurement across runs, samples, wells, individuals or studies. Marks such as (2×) say how often a value occurs here.

`ClCCCN1CCN(CCCl)CC1`: the T/C (dose: 3.75 mg/kg/injection, schedule: Q04DX003 (sc), vehicle: saline) is 50 % of control, 58 % of control, 83 % of control; the T/C (dose: 15.0 mg/kg/injection, schedule: Q04DX003 (sc), vehicle: saline) was -61 % of control and 8 % of control.
Take `CC1(C)OC2C(COC(=O)c3ccc([N+](=O)[O-])cc3)OC(NC(=O)N(CCCl)N=O)C2O1` (stereo unspecified): the T/C reads like this: (dose: 300.0 mg/kg/injection, schedule: Q04DX003 (sc), vehicle: saline with Tween-80) 20 % of control (2×) and 55 % of control; (dose: 600.0 mg/kg/injection, schedule: Q04DX003 (sc), vehicle: saline with Tween-80) 3 % of control, 41 % of control, 77 % of control.
Regarding `COc1cc(NS(C)(=O)=O)ccc1Nc1c2ccccc2nc2ccccc12`, the T/C runs as follows: (dose: 1.5 mg/kg/injection, schedule: Q01DX010 (sc), vehicle: lactic acid) 35 % of control and 193 % of control; (dose: 3.0 mg/kg/injection, schedule: Q01DX010 (sc), vehicle: lactic acid) 31 % of control and 106 % of control.
For `CS(=O)(=O)OCCN(CCOS(C)(=O)=O)c1ccc(C=O)cc1`, under setting [1], the T/C was -58 % of control and 38 % of control.
On to `CCOC(=O)c1ccc(NC(=O)Nc2nncs2)cc1`, for which the T/C reads like this: (dose: 100.0 mg/kg/injection, schedule: Q01DX010 (sc), vehicle: distilled water + Tween-80) 63 % of control and 101 % of control; (dose: 200.0 mg/kg/injection, schedule: Q01DX010 (sc), vehicle: distilled water + Tween-80) 42 % of control and 71 % of control; under setting [2], 20 % of control and 58 % of control.
For `CO[C@H](C(=O)[C@@H](O)[C@@H](C)O)[C@@H]1Cc2cc3cc(OC4CC(OC5CC(O)C(O)C(C)O5)C(O)C(C)O4)c(C)c(O)c3c(O)c2C(=O)[C@H]1OC1CC(OC2CC(OC3CC(C)(O)C(O)C(C)O3)C(O)C(C)O2)C(O)C(C)O1` (stereo partly specified), the T/C under setting [3] was -100 % of control and 55 % of control; the T/C (dose: 1.0 mg/kg/injection, schedule: Q01DX010 (sc), vehicle: saline) is -69 % of control and -8 % of control.
For `CC1(C)OCC(CO)(Nc2nc(N3CC3)nc(N3CC3)n2)CO1`, the T/C (dose: 1.25 mg/kg/injection, schedule: Q01DX010 (sc), vehicle: saline) was -68 % of control and 4 % of control.
With `O=NN(CCCl)C(=O)NCCO`, the T/C (dose: 6.25 mg/kg/injection, schedule: Q04DX003 (sc), vehicle: water) is 41 % of control and 189 % of control.
`CSc1ncnc2c1ncn2C1OC(CO)C(O)C1O` (stereo unspecified): under “dose: 37.5 mg/kg/injection, schedule: Q04DX003 (sc), vehicle: saline + alcohol”, the T/C was 41 % of control and 82 % of control.
`CC1CCC(n2cnc3c(Cl)ncnc32)O1` (stereo unspecified): where the note is “dose: 150.0 mg/kg/injection, schedule: Q04DX003 (sc), vehicle: Klucel (hydroxypropylcellulose) (HPC)”, the T/C is 10 % of control and 86 % of control.
For the molecule `C=C1CC2(OC1=O)C(=O)N(C)c1ccc(I)cc12` (stereo unspecified), the T/C reads like this: (dose: 300.0 mg/kg/injection, schedule: Q04DX003 (sc), vehicle: suspension in saline) 20 % of control, 79 % of control, 118 % of control; (dose: 600.0 mg/kg/injection, schedule: Q04DX003 (sc), vehicle: suspension in saline) 20 % of control, 89 % of control, 105 % of control; (dose: 1200.0 mg/kg/injection, schedule: Q04DX003 (sc), vehicle: suspension in saline) 42 % of control, 69 % of control, 113 % of control; (dose: 2400.0 mg/kg/injection, schedule: Q04DX003 (sc), vehicle: suspension in saline) 70 % of control and 121 % of control.
Regarding `Nc1nc([Se])c2ncn(C3OC(CO)C(O)C3O)c2n1` (stereo unspecified), the T/C by setting is: (dose: 4.0 mg/kg/injection, schedule: Q01DX010 (sc), vehicle: saline) 105 % of control, 113 % of control, 150 % of control; (dose: 8.0 mg/kg/injection, schedule: Q01DX010 (sc), vehicle: saline) 68 % of control, 160 % of control, 199 % of control; (dose: 13.33 mg/kg/injection, schedule: Q04DX003 (sc), vehicle: saline) 14 % of control and 104 % of control; (dose: 26.65 mg/kg/injection, schedule: Q04DX003 (sc), vehicle: saline) 8 % of control and 106 % of control.
For the molecule `O=NNc1ccccn1`, the T/C was 17 % of control and 46 % of control under setting [1]; 2 % of control and 63 % of control (dose: 16.0 mg/kg/injection, schedule: Q01DX010 (sc), vehicle: saline); 16 % of control, 47 % of control, 97 % of control (dose: 16.0 mg/kg/injection, schedule: Q04DX003 (sc), vehicle: saline); -88 % of control and 5 % of control (dose: 32.0 mg/kg/injection, schedule: Q01DX010 (sc), vehicle: saline); 2 % of control, 11 % of control, 108 % of control (dose: 32.0 mg/kg/injection, schedule: Q04DX003 (sc), vehicle: saline).
As to `Cc1cc(NCCCCCCCNc2cc(C)nc3cc(N)ccc23)c2ccc(N)cc2n1`, the T/C (dose: 25.0 mg/kg/injection, schedule: Q01DX010 (sc), vehicle: saline with Tween-80) was 15 % of control, 29 % of control, 97 % of control and the T/C (dose: 50.0 mg/kg/injection, schedule: Q01DX010 (sc), vehicle: saline with Tween-80) is 6 % of control, 26 % of control, 67 % of control.
With `OCC1OC(n2cnc3c(=S)nc[nH]c32)C(O)C1O` (stereo unspecified), the T/C (dose: 50.0 mg/kg/injection, schedule: Q01DX010 (sc), vehicle: saline) is 19 % of control and 53 % of control.
As to `CC[N+](CC)(CC)CC`, the T/C is, setting by setting: (dose: 6.0 mg/kg/injection, schedule: Q01DX010 (sc), vehicle: saline with Tween-80) 90 % of control and 168 % of control; (dose: 12.0 mg/kg/injection, schedule: Q01DX010 (sc), vehicle: saline with Tween-80) 57 % of control and 161 % of control.
Consider `OC(CBr)C(O)C(O)C(O)CBr` (stereo unspecified), for which the T/C was 3 % of control and 29 % of control (dose: 30.0 mg/kg/injection, schedule: Q01DX010 (sc), vehicle: Klucel (hydroxypropylcellulose) (HPC)); 5 % of control and 50 % of control (dose: 200.0 mg/kg/injection, schedule: Q01DX010 (sc), vehicle: Klucel (hydroxypropylcellulose) (HPC)); -73 % of control and 17 % of control (dose: 400.0 mg/kg/injection, schedule: Q01DX010 (sc), vehicle: Klucel (hydroxypropylcellulose) (HPC)).
Turning to `CC12CCC3C(CCC4CC(OC(=O)Cc5ccc(N(CCCl)CCCl)cc5)CCC43C)C1CCC(=O)N2` (stereo unspecified), the T/C reads like this: (dose: 50.0 mg/kg/injection, schedule: Q04DX003 (sc), vehicle: saline with Tween-80) -98 % of control, -85 % of control, -18 % of control; (dose: 100.0 mg/kg/injection, schedule: Q04DX003 (sc), vehicle: saline with Tween-80) -100 % of control, -96 % of control, -13 % of control; (dose: 200.0 mg/kg/injection, schedule: Q04DX003 (sc), vehicle: saline with Tween-80) -100 % of control and -55 % of control.
As to `O=NN(CCCl)C(=O)NC1[C@H](O)CCC[C@@H]1O` (stereo partly specified), the T/C (dose: 10.0 mg/kg/injection, schedule: Q04DX003 (sc), vehicle: saline) is recorded as -79 % of control, 10 % of control, 45 % of control; the T/C (dose: 20.0 mg/kg/injection, schedule: Q04DX003 (sc), vehicle: saline) was -85 % of control and 25 % of control.
For `CC(C)NC(=O)OCc1c(COC(=O)NC(C)C)c(-c2ccc(Cl)c(Cl)c2)n2c1CCC2`, the T/C runs as follows: under setting [2], -30 % of control, 16 % of control, 21 % of control; (dose: 800.0 mg/kg/injection, schedule: Q01DX010 (sc), vehicle: distilled water + Tween-80) -54 % of control (2×) and 5 % of control.
In the case of `COc1cc2cc(c1Cl)N(C)C(=O)CC(OC(=O)CC(C)C)C1(C)OC1C(C)C1CC(O)(NC(=O)O1)C(OC)/C=C/C=C(C)C2` (stereo unspecified), the T/C (dose: 50.0 micrograms/kg/injection, schedule: Q01DX010 (sc), vehicle: saline + alcohol) was 15 % of control and 85 % of control.
On to `OCCN1CCN(CCCN2c3ccccc3Sc3ccc(C(F)(F)F)cc32)CC1`, for which the T/C (dose: 120.0 mg/kg/injection, schedule: Q04DX003 (sc), vehicle: saline) is 34 % of control and 62 % of control; the T/C (dose: 240.0 mg/kg/injection, schedule: Q04DX003 (sc), vehicle: saline) is 21 % of control and 50 % of control.
As to `O=C(O)c1c2c(nc3ccccc13)Cc1ccccc1-2`, the T/C was 68 % of control and 198 % of control (dose: 50.0 mg/kg/injection, schedule: Q01DX010 (sc), vehicle: water); 29 % of control and 178 % of control (dose: 100.0 mg/kg/injection, schedule: Q01DX010 (sc), vehicle: water).
`OC(C1CO1)C(O)C1CO1` (stereo unspecified): the T/C was 2 % of control and 52 % of control under setting [3]; -23 % of control and 3 % of control (dose: 2.0 mg/kg/injection, schedule: Q01DX010 (sc), vehicle: saline).

For the origin of these results see PubChem BioAssay AID296 (DTP/NCI, 2004).
